From PubChem BioAssay AID1963984 (Molecular Pharmacology Branch, DTP, NCI, 2024)
Some entries of the source have several records that differ or are many. This list holds those alone. There may be further records. Values given together are repeats across runs, samples, wells, individuals or studies. Counts like (3×) give the number of equal values in this list.

Test system: 233499-124-R-J3-PDC spheroids with HUVEC/MSC, viability
Test: Anticancer human tumor 233499-124-R-J3-PDC patient-derived colon adenocarcinoma cell line growth inhibition [PI3K]
Settings: for viability, T/C: stronger effect = lower value; for IC50: compound alone
Source text: Combinatorial screen of targeted agents with the PI3K inhibitors inavolisib, alpelisib, duvelisib, and copanlisib in multi-cell type tumor spheroids
A high-throughput screen of multi-cell type tumor spheroids was designed to identify active combinations of targeted small molecules and PI3K pathway inhibitors. Complex spheroids include a stromal component modeled by human endothelial cells (HUVEC) and fibroblasts modeled by human mesenchymal stem cells (MSCs). The concentration ranges selected for each drug and investigational agent were based upon clinically achievable concentrations if the clinical Cmax of the agent was known.
Compounds. The drugs and investigational agents: inavolisib (NSC800729), alpelisib (NSC765974), duvelisib (NSC772469), copanlisib (NSC816437), ipatasertib (NSC767898), afuresertib (NSC778305), talazoparib (NSC767125), sapanisertib (NSC764658), selumetinib (NSC741078), tovorafenib (DAY101, NSC766906), vemurafenib (NSC761431), ravoxertinib (NSC781343), sotorasib (NSC818433), MRTX1133 (NSC 836407), abemaciclib (NSC 768073), palbociclib (NSC758247), venetoclax (NSC 766270), SY5609 (NSC837396), enzalutamide (NSC755605), and darolutamide (NSC825331), were obtained from the National Cancer Institute (NCI) Developmental Therapeutics Program Chemical Repository. The FDA-approved anticancer drug set is available from the NCI Developmental Therapeutics Program. […] The stock solutions were prepared in dimethyl sulfoxide (DMSO, Sigma-Aldrich, St. Louis, MO, cat. D2650) at 800-fold the tested concentration and stored at -70 degrees C prior to their use. All drugs and investigational agents were tested over a range starting from a high concentration at or near the clinical Cmax and decreasing in half-log increments. If the clinical Cmax for an agent had not been determined, the highest concentration tested was 10 microM.
Cell Culture. All cells were maintained in an incubator at 37 degrees C and 5% CO2 with 95% humidity. The PDC lines were cultured according to standard operating procedures established by the NCI PDMR (https://pdmr.cancer.gov/sops/default.htm). All PDCs were thawed and cultured in Matrigel-coated flasks prepared with a working solution of 1X Ham's F-12 nutrient mix, without supplementation (Invitrogen, Waltham, MA, cat. 11765054), 100 U/mL penicillin-streptomycin (Invitrogen, cat. 15140122), and 2.5% Matrigel (Corning Inc., Corning, NY, cat. 354248) for the first three passages. The 354836-022-R-J1-PDC, 475296-252-R-J1-PDC, and 997726-040-R-J2-PDC lines were cultured in 6A media, which includes advanced DMEM/F-12 (Thermo Fisher Scientific, cat. 12634028), 10 mM HEPES (Thermo Fisher Scientific, cat. 15630080), 1X GlutaMAX supplement (Thermo Fisher Scientific, cat. 35050061), 0.1 mg/mL primocin (InvivoGen, San Diego, CA, cat. ant-pm-2), 10% defined fetal bovine serum, heat inactivated (HyClone Laboratories Inc., Logan, UT, cat. SH30070.03HI), 50% L-WRN conditioned media (ATCC, cat. CRL-3276), 1.25 mM N-Acetyl-L-cysteine (Sigma-Aldrich, cat. A9165), 10 mM nicotinamide (Sigma-Aldrich, cat. N0636), 1X B-27 supplement (Thermo Fisher Scientific, cat. 17504044), 1X N-2 supplement (Thermo Fisher Scientific, cat. 17502048), and 10 microM Y-27632 dihydrochloride (Tocris Bioscience, Bristol, United Kingdom, cat. 1254). The 624824-186-R-J2-PDC line was cultured in 6C/Colon 1B media, which includes all 6A media components plus 50 ng/mL human EGF recombinant protein (Thermo Fisher Scientific, cat. PHG0311). […]
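Also: spheroids exposed to agents for seven days before readout.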
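For viability, T/C in this document: percent viability relative to DMSO vehicle control taken as 100%.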

Cn1nccc1Nc1nccc(-c2ccn(C(CO)c3ccc(Cl)c(F)c3)c(=O)c2)n1 (stereo not drawn)
viability, T/C (compound alone 0.0316 µM): 89.8, 68.8, 107, 97.1% | viability, T/C (compound alone 0.316 µM): 54.6, 68.4, 83.1, 87.3% | viability, T/C (compound alone 1 µM): 92.5, 67, 88.8, 86.9% | viability, T/C (compound alone 3.16 µM): 47.7, 73, 63.5, 85.2%

Cn1ncnc1[C@H]1c2n[nH]c(=O)c3cc(F)cc(c23)N[C@@H]1c1ccc(F)cc1
viability, T/C (compound alone 0.00316 µM): 84.3, 88.2, 88.1, 110% | viability, T/C (compound alone 0.01 µM): 104, 91.3, 91.4, 78.5%

C=CC(=O)N1CCN(c2nc(=O)n(-c3c(C)ccnc3C(C)C)c3nc(-c4c(O)cccc4F)c(F)cc23)C(C)C1 (stereo not drawn)
viability, T/C (compound alone 0.316 µM): 86.5, 79.6, 92.8, 111% | viability, T/C (compound alone 10 µM): 103, 107, 79.6, 111%

Cc1nc(NC(=O)N2CCCC2C(N)=O)sc1-c1ccnc(C(C)(C)C(F)(F)F)c1 (stereo not drawn)
viability, T/C (compound alone 0.316 µM): 70, 99.2, 85.1, 85.8, 81.4, 78.7, 91.8, 105% | viability, T/C (compound alone 1 µM): 87.3, 66.9, 77.3, 70.8, 81.6, 73.2, 49.8, 62.1% | viability, T/C (compound alone 3.16 µM): 85.8, 71.1, 62.5, 65.2, 58.7, 76.1, 61.2, 77.5% | viability, T/C (compound alone 10 µM): 51.3, 30.7, 42.2, 25.3, 38.7, 32.2, 30.4, 48.5% | IC50 (run of 05/08/2023): > 10 µM, 5.37 µM, 6.4 µM, 4.85 µM, 5.25 µM, 6.25 µM, 3.74 µM, 9.62 µM

CC1(C)CCC(CN2CCN(c3ccc(C(=O)NS(=O)(=O)c4ccc(NCC5CCOCC5)c([N+](=O)[O-])c4)c(Oc4cnc5[nH]ccc5c4)c3)CC2)=C(c2ccc(Cl)cc2)C1
IC50: 6.16 µM, 5.06 µM, 5.78 µM, > 10 µM | viability, T/C (compound alone 0.316 µM): 85.3, 69.1, 98.3, 103% | viability, T/C (compound alone 1 µM): 114, 75.1, 112, 100% | viability, T/C (compound alone 10 µM): 13.6, 3.12, 2.79, 117%

COc1c(OCCCN2CCOCC2)ccc2c3n(c(=NC(=O)c4cnc(N)nc4)nc12)CCN3
viability, T/C (compound alone 0.00316 µM): 95.1, 96.5, 107, 79.9, 70.8, 77.7, 87, 92.1% | viability, T/C (compound alone 0.1 µM): 85.5, 64.4, 59 (2×), 66.1, 65, 73.5% (2×)

CC(Nc1ccc2c(c1)OCCn1cc(N3C(=O)OCC3C(F)F)nc1-2)C(N)=O (stereo not drawn)
viability, T/C (compound alone 0.00316 µM): 101, 90.4, 89.9, 71.9, 99.3, 86.9, 84.2, 85.2% | viability, T/C (compound alone 0.01 µM): 78.9, 87.6, 82.2, 62.7, 99.7, 99.8, 88.6% | viability, T/C (compound alone 0.0316 µM): 85.5, 76.9, 87.9, 83.1, 93.7, 76, 104, 84% | viability, T/C (compound alone 0.316 µM): 74.7, 91.5, 85.5, 87.2, 65.8, 83.3, 80.5, 82%

CC(=O)c1c(C)c2cnc(Nc3ccc(N4CCNCC4)cn3)nc2n(C2CCCC2)c1=O
viability, T/C (compound alone 0.0316 µM): 87.8, 82, 83, 112%

Cn1cnc2c(F)c(Nc3ccc(Br)cc3Cl)c(C(=O)NOCCO)cc21
IC50: 262 nM, 310 nM, > 3 µM, 486 nM | viability, T/C (compound alone 0.03 µM): 82.6, 83.5, 61, 88.2%

CC(Cn1ccc(-c2ccc(C#N)c(Cl)c2)n1)NC(=O)c1cc(C(C)O)[nH]n1 (stereo not drawn)
viability, T/C (compound alone 0.0316 µM): 99.7, 84.5, 76.1, 103% | viability, T/C (compound alone 0.1 µM): 103, 73.8, 97.3, 86.8% | viability, T/C (compound alone 10 µM): 69.6, 99, 85.1, 114%

CCN1CCN(Cc2ccc(Nc3ncc(F)c(-c4cc(F)c5nc(C)n(C(C)C)c5c4)n3)nc2)CC1
IC50: 259 nM, 370 nM, > 1 µM, 521 nM | viability, T/C (compound alone 0.00316 µM): 71.8, 98.6, 90.2, 89%

C[C@@H](NC(=O)c1ncnc(N)c1Cl)c1ncc(C(=O)Nc2cc(C(F)(F)F)c(Cl)cn2)s1
viability, T/C (compound alone 0.0316 µM): 73.1, 118, 98.1, 98.9% | viability, T/C (compound alone 0.1 µM): 92.1, 82.8, 109, 106% | viability, T/C (compound alone 0.316 µM): 99.9, 99.7, 109, 129% | viability, T/C (compound alone 1 µM): 99.9, 122, 115, 130%

CCCS(=O)(=O)Nc1ccc(F)c(C(=O)c2c[nH]c3ncc(-c4ccc(Cl)cc4)cc23)c1F
viability, T/C (compound alone 0.0316 µM): 97.5, 95, 102, 76.3% | viability, T/C (compound alone 3.16 µM): 80.1, 102, 86.9, 74%

CC1(C)CCC(Nc2ncc(C(F)(F)F)c(-c3c[nH]c4c(P(C)(C)=O)c(C#N)ccc34)n2)CN1 (stereo not drawn)
IC50: 201, 128, 231, 54.2 nM | viability, T/C (compound alone 0.1 µM): 69.8, 42.7, 64, 53.3%

CC(C)NCC(C(=O)N1CCN(c2ncnc3c2C(C)CC3O)CC1)c1ccc(Cl)cc1 (stereo not drawn)
viability, T/C (compound alone 0.1 µM): 75.8, 108, 96.2, 85.4% | viability, T/C (compound alone 10 µM): 69.2, 100, 83.7, 96.5%

CNC(=O)c1ccc(N2C(=S)N(c3ccc(C#N)c(C(F)(F)F)c3)C(=O)C2(C)C)cc1F
viability, T/C (compound alone 10 µM): 66.6, 75.9, 92.4, 70.1%

CC(C)n1nc(-c2ccc3oc(N)nc3c2)c2c(N)ncnc21
viability, T/C (compound alone 0.000316 µM): 96.3, 84.6, 77.1, 70.7%
